Measurements published in publication PMC11358291.
No constants are given. Whether binding was seen depends on the method and setting. For part of these data: Binding seen in cells or lysates may run through a third protein. Some entries that bind do so weakly or less than the wild type.

Sequences of proteins named here, by UniProt entry; tags and fusion partners are left off.
UniProt P42336: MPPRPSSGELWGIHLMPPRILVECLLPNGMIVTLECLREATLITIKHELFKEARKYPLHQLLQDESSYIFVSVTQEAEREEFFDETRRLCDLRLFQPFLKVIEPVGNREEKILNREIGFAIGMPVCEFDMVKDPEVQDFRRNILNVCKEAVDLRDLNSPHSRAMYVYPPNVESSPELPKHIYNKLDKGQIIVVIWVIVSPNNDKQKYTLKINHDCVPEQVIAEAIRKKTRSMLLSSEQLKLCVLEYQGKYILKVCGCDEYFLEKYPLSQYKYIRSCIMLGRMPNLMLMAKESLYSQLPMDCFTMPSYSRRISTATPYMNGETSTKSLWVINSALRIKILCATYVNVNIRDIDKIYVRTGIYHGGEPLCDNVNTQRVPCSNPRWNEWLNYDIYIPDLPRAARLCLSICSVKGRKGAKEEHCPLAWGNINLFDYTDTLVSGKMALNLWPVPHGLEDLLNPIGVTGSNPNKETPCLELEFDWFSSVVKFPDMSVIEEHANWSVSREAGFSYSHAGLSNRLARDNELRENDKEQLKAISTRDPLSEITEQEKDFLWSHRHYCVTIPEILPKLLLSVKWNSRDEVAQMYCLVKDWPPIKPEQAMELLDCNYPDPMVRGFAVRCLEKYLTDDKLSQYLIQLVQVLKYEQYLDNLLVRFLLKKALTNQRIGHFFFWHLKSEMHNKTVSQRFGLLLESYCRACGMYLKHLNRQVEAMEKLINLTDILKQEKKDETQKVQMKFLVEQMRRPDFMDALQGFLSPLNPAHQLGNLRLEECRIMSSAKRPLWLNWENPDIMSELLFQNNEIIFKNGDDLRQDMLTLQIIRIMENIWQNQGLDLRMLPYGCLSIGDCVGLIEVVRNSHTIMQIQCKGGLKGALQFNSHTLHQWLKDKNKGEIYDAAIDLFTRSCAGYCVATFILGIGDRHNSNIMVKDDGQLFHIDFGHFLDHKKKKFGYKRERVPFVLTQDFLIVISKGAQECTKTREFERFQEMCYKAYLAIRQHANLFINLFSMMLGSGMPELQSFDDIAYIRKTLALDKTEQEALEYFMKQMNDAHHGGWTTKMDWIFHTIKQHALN
UniProt Q13283: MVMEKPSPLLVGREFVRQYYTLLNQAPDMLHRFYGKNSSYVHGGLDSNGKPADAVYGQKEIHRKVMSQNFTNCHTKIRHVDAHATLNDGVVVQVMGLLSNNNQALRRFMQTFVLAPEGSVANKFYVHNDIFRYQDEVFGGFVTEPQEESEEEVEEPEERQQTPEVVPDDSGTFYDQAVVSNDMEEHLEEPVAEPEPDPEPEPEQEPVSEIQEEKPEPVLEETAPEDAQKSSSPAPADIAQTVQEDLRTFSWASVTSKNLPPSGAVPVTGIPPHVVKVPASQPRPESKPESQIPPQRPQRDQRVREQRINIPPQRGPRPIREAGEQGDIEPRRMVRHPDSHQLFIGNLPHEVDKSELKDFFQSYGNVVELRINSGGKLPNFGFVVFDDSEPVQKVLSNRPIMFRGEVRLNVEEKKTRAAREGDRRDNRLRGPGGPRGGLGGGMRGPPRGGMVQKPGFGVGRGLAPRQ
UniProt P27986: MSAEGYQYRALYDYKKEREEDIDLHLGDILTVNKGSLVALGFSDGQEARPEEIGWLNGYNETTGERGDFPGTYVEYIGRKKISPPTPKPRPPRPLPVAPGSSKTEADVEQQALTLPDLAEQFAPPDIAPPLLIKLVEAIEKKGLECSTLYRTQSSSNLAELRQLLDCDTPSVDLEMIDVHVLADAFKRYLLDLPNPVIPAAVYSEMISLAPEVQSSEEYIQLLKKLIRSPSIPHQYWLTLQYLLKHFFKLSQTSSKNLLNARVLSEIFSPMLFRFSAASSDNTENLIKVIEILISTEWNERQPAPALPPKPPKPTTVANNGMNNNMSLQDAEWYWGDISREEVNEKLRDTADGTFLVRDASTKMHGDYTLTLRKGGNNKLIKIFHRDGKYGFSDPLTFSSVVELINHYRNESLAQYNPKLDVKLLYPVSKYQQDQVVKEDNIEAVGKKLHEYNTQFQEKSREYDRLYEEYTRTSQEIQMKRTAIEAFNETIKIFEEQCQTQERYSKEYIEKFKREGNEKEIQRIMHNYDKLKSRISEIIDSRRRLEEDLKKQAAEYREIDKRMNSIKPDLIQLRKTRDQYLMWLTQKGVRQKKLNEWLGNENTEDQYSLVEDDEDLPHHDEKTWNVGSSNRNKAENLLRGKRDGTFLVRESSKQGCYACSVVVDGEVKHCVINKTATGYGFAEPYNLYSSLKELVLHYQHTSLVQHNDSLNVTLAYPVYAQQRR
UniProt Q99873: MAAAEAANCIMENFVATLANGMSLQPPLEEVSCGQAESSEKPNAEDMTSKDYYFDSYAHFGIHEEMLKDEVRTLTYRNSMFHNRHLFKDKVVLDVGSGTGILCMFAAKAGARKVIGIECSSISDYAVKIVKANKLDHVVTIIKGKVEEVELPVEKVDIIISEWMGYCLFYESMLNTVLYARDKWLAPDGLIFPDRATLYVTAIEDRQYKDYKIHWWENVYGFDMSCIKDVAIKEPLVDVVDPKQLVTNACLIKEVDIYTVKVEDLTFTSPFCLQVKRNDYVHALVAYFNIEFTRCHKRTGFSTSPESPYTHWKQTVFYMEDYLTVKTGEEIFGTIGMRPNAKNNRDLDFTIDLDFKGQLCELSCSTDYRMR
UniProt P11940: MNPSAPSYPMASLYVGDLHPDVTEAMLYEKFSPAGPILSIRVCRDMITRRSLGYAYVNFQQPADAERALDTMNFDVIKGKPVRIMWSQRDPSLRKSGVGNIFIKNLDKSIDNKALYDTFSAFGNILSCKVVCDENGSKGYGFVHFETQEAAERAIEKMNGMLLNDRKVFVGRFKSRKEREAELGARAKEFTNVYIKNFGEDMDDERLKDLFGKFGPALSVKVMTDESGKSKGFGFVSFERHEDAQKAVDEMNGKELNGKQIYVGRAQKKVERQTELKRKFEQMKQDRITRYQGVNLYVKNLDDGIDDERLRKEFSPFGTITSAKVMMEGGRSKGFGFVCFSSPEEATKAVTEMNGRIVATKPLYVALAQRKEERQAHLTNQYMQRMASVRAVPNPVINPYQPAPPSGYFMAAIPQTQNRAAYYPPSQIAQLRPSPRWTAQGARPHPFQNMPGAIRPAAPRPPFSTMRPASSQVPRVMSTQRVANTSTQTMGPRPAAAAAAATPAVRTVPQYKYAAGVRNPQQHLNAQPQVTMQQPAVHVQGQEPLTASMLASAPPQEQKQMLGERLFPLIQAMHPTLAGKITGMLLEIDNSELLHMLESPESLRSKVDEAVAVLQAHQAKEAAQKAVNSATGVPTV

Assays:
[1] = target: Flag-p110α (UniProt P42336); assay: co-IP; HEK293T cells co-transfected with a Flag-tagged and an HA-tagged protein; IP with anti-Flag or anti-HA, western blot of the other tag; IP lysis buffer 25 mM Tris-HCl pH 7.4, 1% Nonidet P-40, 150 mM NaCl, 1 mM EDTA, 5% glycerol; 4 °C overnight
[2] = target: endogenous p110α (HepG2) (human (endogenous in HepG2)) (UniProt P42336); assay: co-IP; endogenous proteins in HepG2 cells; IP with antibodies to either partner, western blot; IP lysis buffer, 4 °C overnight
[3] = target: HA-G3BP1 (UniProt Q13283); assay: co-IP; HEK293T cells co-transfected with a Flag-tagged and an HA-tagged protein; IP with anti-Flag or anti-HA, western blot of the other tag; IP lysis buffer 25 mM Tris-HCl pH 7.4, 1% Nonidet P-40, 150 mM NaCl, 1 mM EDTA, 5% glycerol; 4 °C overnight
[4] = target: HA-p85α (UniProt P27986); assay: as above
[5] = target: HA-G3BP1 (in HepG2) (UniProt Q13283); assay: condition: only with RNase A (40 μg/ml) in the lysis buffer; co-IP; as a3 but with RNase A (40 μg/ml) in the lysis buffer
[6] = target: HA-G3BP1 (in HepG2) (UniProt Q13283); assay: co-IP; HepG2 cells transfected with HA-G3BP1, with or without Flag-p110α (or p110α knockdown), with or without AS (500 μM, 1 h); HA precipitates blotted for PABP, RPL4, RPS6; no RNase
[7] = target: Flag-p110α (UniProt P42336); assay: co-IP; as a5 with EE (2 mM EDTA, 2.5 mM EGTA) or MgCl2 (5 mM) in the lysis buffer, lanes 5 and 7
[8] = target: Flag-p110α (UniProt P42336); assay: co-IP; HEK293T cells transfected with Flag-p110α, with or without AS; Flag precipitates blotted for SG proteins; no additive in the lysis buffer (lanes 2 and 3)
[9] = target: Flag-p110α (UniProt P42336); assay: condition: only with RNase A (40 μg/ml) in the lysis buffer; co-IP; as a5 with RNase A (40 μg/ml) in the lysis buffer (lane 4; for G3BP1 and PABP also lanes 6, 8 and 9 with EE and/or MgCl2); with EE the RPL4 and RPS6 signal was enhanced (lane 6)
[10] = target: GST-p110α (UniProt P42336); assay: pull-down; GST-labelled protein from E. coli BL21 (DE3) on glutathione-Sepharose beads overnight at 4 °C, His-tagged protein added for 4 h at 4 °C; immunoblot with anti-His antibody; both purified

HA-G3BP1 (from UniProt Q13283 1-466)
binding [1]: binds

endogenous G3BP1 (HepG2) (from UniProt Q13283 1-466)
binding [2]: binds

Flag-p85α (from UniProt P27986 1-724)
binding [3]: no binding

endogenous PRMT1 (HepG2) (from UniProt Q99873 1-371) (enzyme)
binding [2]: binds

Flag-PRMT1 (from UniProt Q99873 1-371) (enzyme)
binding [4]: no binding

endogenous PABP (HepG2) (from UniProt P11940 1-636)
binding [5]: no binding | binding [6]: binds

endogenous G3BP1 (HEK293T) (from UniProt Q13283 1-466)
binding [7]: binds | binding [8]: binds | binding [9]: no binding

endogenous PABP (HEK293T) (from UniProt P11940 1-636)
binding [7]: binds | binding [8]: binds | binding [9]: no binding

His-PRMT1 (from UniProt Q99873 1-371) (enzyme)
binding [10]: binds

HA-PRMT1 (from UniProt Q99873 1-371) (enzyme)
binding [1]: binds
